Measured values published in PubChem BioAssay AID1468 (National Center for Advancing Translational Sciences (NCATS), 2008).
Where “and” joins values, the source holds several entries; their conditions need not be identical. Equal values may be shown once. Among all 280,000 compounds or so, about 1,100 (0.39%) were called active. The shares of active, inactive and inconclusive entries below differ from those in the screen. Calls come from the whole dose curve; as a rule, active = well fitted inhibition curve with a large enough effect; inconclusive = small, poorly fitted or top-dose-only effect, or effect the other way; inactive = flat fitted curve, though single readings scatter. Where the call is inconclusive, the potency comes from a doubtful curve fit.
Note: nearly all actives have a fitted effect of over 55% in size.
Potency is the fitted concentration of half-maximal effect; tags give direction and shape of the fitted curve.

These compounds were tested against Microtubule-associated protein tau (Homo sapiens) (UniProt P10636) (assay: qHTS for Inhibitors of Tau Fibril Formation, Fluorescence Polarization). Settings: K18 P301L tau heparin fibrillization, Alexa594 FP, 6 h; series mostly up to 57.7 µM.
Chain of UniProt P10636 (P10636 whole entry, looked up, the tested form may be a part): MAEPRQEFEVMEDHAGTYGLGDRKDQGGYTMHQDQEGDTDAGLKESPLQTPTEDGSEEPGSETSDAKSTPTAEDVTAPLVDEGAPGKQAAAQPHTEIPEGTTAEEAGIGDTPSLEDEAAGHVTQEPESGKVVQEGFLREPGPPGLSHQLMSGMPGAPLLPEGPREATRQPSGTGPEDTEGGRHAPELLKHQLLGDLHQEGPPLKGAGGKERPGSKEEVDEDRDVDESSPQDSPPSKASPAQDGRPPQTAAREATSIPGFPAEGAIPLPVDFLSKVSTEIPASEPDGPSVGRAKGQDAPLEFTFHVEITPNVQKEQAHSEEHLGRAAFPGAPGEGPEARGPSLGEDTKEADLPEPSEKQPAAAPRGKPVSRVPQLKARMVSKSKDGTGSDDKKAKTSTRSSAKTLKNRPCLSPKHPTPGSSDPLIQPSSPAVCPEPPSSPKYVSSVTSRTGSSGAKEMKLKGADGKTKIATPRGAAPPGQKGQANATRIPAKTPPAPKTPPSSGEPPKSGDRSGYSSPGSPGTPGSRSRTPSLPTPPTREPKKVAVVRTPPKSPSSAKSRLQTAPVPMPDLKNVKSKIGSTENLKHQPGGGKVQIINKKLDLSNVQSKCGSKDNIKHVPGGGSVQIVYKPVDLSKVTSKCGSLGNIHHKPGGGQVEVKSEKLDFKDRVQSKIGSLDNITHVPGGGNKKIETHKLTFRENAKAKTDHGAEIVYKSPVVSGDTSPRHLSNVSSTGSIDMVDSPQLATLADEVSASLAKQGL
Procedure, shortened: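 Human K18 P301L fragment (15 uM unlabeled plus 0.24 uM Alexa 594-labeled) in 100 mM sodium acetate pH 7 with compound, aggregation induced by 20 uM heparin for 6 hr at 37 C. ThT (30 uM) added for 1 hr, then Alexa 594 FP read.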
With `O=c1c(C(c2c(O)nc3n(c2=O)CCS3)c2cccc3ccccc23)c(O)nc2n1CCS2` the Potency was inconclusive: 15.8 µM [inhibitor, partial curve].
In the case of `Cc1[nH]c(=S)[nH]c(=O)c1Cc1ccccc1`, the Potency is reported as “inactive”.
For `CN(C)/C=C/C(=O)c1cnc(-c2ccc(Cl)cc2)s1`, the Potency was inconclusive: 7.94 µM [inhibitor, single point].
For `COc1ccc(C(=O)N2CCCCC2)cc1S(=O)(=O)Nc1ccccc1`, the Potency was inconclusive: 17.8 µM [inhibitor, single point].
In the case of `COc1c(O)ccc2c1CN1CCc3cc4c(cc3C1C2)OCO4` (configuration not stated), the Potency is reported as inconclusive: 22.4 µM [inhibitor, partial curve].
With `O=C(O)CC/C(=N/NC(=O)CNC(=O)Cc1ccccc1)c1ccccc1` the Potency was inconclusive: 0.316 µM [inhibitor, full curve, poor fit].
In the case of `COc1cccc2[nH]c(C(=O)NN)c(N)c12`, the Potency is reported as inconclusive: 39.8 µM [inhibitor, single point].
In the case of `CN(C)c1ccc(-c2noc(C3CC(=O)N(c4ccc5c(c4)OCCO5)C3)n2)cc1` (configuration not stated), the Potency is reported as inconclusive: 28.2 µM [activator, partial curve, poor fit].
`O=C(Nc1ccc(Cl)cc1)c1cc2c(Cl)nc3ccccc3c2s1` was tested, and the Potency was inconclusive: 11.2 µM [inhibitor, partial curve].
In the case of `O=C(Nc1ccc(S(=O)(=O)N2CCCCC2c2cccnc2)cc1)c1ccc(F)cc1` (configuration not stated), the Potency is reported as inconclusive: 8.91 µM [inhibitor, full curve].
In the case of `Oc1c(Cl)cc(Cl)c2c1NCCC2`, the Potency is reported as inconclusive: 15.8 µM [inhibitor, partial curve].
With `Cc1ccc(C)c(NC(=O)N2CCc3cc(S(=O)(=O)N4CCC(C)CC4)ccc32)c1` the Potency was inconclusive: 35.5 µM [inhibitor, single point].
For `COc1ccc(CN(Cc2nc3ccccc3c(=O)[nH]2)C(=O)C(C)(C)C)cc1`, the Potency was “inactive”.
In the case of `Cc1ccc2c(Cl)c(C(=O)Nc3cc(C)on3)sc2c1`, the Potency is reported as inconclusive: 7.08 µM [inhibitor, partial curve, poor fit].
`COCC(C)NC(=O)c1cccc([N+](=O)[O-])c1` (configuration not stated) was tested, and the Potency was “inactive”.
With `O=C1C2CC=C(Cl)CC2C(=O)N1CCc1c[nH]c2ccccc12` (configuration not stated) the Potency was inconclusive: 8.91 µM [inhibitor, single point].
With `CCc1ccc(S(=O)(=O)c2nnn3c2nc(NCc2cccc(OC)c2)c2cc(Cl)ccc23)cc1` the Potency was inconclusive: 17.8 µM [inhibitor, partial curve].
`N#Cc1ccc(C(=O)N2CCN(S(=O)(=O)c3ccc(Br)s3)CC2)cc1` was tested, and the Potency was inconclusive: 8.91 µM [inhibitor, single point].
With `C=CCN1C=C2C(=O)C(C)(OC(=O)c3cccs3)C(=O)C=C2C=C1CCCC(=O)OC` (configuration not stated) the Potency was inconclusive: 14.1 µM [inhibitor, partial curve, poor fit].
`O=C(Nc1cccc(-c2nc3ccccc3[nH]2)c1)c1ccccc1F` was tested, and the Potency was inconclusive: 15.8 µM [inhibitor, partial curve].
For `Clc1nc2c(-c3ccccc3)nnn2c2ccccc12`, the Potency was inconclusive: 1.78 µM [inhibitor, full curve].
In the case of `O=C(COc1ccc(Cl)cc1)NCc1nnc(SCC(=O)N2CCCc3ccccc32)o1`, the Potency is reported as “inactive”.
In the case of `CCn1c(N2CCN(CC(=O)c3ccc(OC)cc3)CC2)nc2ccccc21`, the Potency is reported as inconclusive: 0.112 µM [inhibitor, full curve, poor fit].
In the case of `CC1=C(c2ccc(C)c(C)c2)S(=O)(=O)N=C1N1CCC(C(=O)Nc2ccc(Cl)cc2)CC1`, the Potency is reported as inconclusive: 20 µM [inhibitor, partial curve].
For `COc1ccc(CCNc2nc(SCc3ccc(F)cc3)nc3ccccc23)cc1OC`, the Potency was “inactive”.
For `Cc1ccc2nc(SCC(=O)Nc3cc(C(C)(C)C)nn3-c3ccccc3)[nH]c2c1`, the Potency was inconclusive: 31.6 µM [inhibitor, single point].
With `CCN1C(=O)/C(=C\C=C2/C=CC=CN2CC)SC1=S` the Potency was inconclusive: 15.8 µM [inhibitor, partial curve].
For `CCOc1ccc(S(=O)(=O)N(C(=O)c2ccco2)c2cc3sc(=O)oc3c3ccccc23)cc1`, the Potency was active: 28.2 µM.
`Cc1ccc(NC(=O)CN2C(=O)CC(c3ccc(F)cc3)=Nc3ccccc32)cc1F` was tested, and the Potency was inconclusive: 25.1 µM [inhibitor, single point].
With `CCOc1ccccc1Nc1nc(-c2ccc(C)cc2)c(CC(=O)O)s1` the Potency was inconclusive: 0.251 µM [inhibitor, full curve].
With `O=c1[nH]c2ccc(NCc3ccc(-c4ccc(Cl)cc4)o3)cc2[nH]1` the Potency was “inactive”.
For `CCCOc1ccc(C2=NNC(=O)CC2)cc1`, the Potency was inconclusive: 1.12 µM [inhibitor, single point].
With `CC(=O)C(/C=N/c1cc(-c2ccc(C)cc2)nn1-c1ccccc1)=C(\C)O` the Potency was “inactive”.
In the case of `CCC(=O)Nc1nnc(SCC(=O)N2c3ccccc3CC2C)s1` (configuration not stated), the Potency is reported as “inactive”.
In the case of `COc1ccc(/C=C\c2onc(C)c2S(=O)(=O)N2CCC(C(=O)Nc3cccc(C)c3C)CC2)cc1`, the Potency is reported as inconclusive: 39.8 µM [inhibitor, single point].
For `Cn1c(N)c(C(=O)COC(=O)c2cc(C(F)(F)F)nc3ccccc23)c(=O)n(Cc2ccccc2)c1=O`, the Potency was inconclusive: 8.91 µM [inhibitor, partial curve] and inconclusive: 17.8 µM [inhibitor, partial curve].
`CC(=O)c1cccc(NC(=O)Cn2c(=O)oc3cc(S(=O)(=O)NC4CCCC4)ccc32)c1` was tested, and the Potency was inconclusive: 17.8 µM [inhibitor, single point].
With `CC(=O)c1ccc(Nc2nc3ccccc3nc2-n2nc(C)cc2C)cc1` the Potency was inconclusive: 35.5 µM [inhibitor, single point].
In the case of `COc1cccc(/C=N/NC(=O)C[n+]2ccccc2)c1O`, the Potency is reported as “inactive”.
With `O=C(N/N=C/c1ccc(OC(F)F)cc1)c1ccc(CSc2nc3ccccc3[nH]2)cc1` the Potency was inconclusive: 8.91 µM [inhibitor, full curve].
`CCOC(=O)c1c(/N=C/c2ccc(O)cc2O)sc2c1CCC2` was tested, and the Potency was “inactive”.
`c1ccc(-n2nnnc2SCCCSc2nc3ccccc3s2)cc1` was tested, and the Potency was “inactive”.
In the case of `Cn1c(N2CCOCC2)c(/C=N/OC(=O)c2cccnc2Cl)c2ccccc21`, the Potency is reported as inconclusive: 11.2 µM [inhibitor, partial curve].
In the case of `Cc1cc(C)c2c(N)c(S(=O)(=O)c3ccccc3)sc2n1`, the Potency is reported as “inactive”.
For `O=C(CSCc1nc2ccccc2[nH]1)Nc1ccc(Oc2ccccc2)cc1`, the Potency was inconclusive: 28.2 µM [inhibitor, partial curve].
`CCCCOC(=O)c1ccc(NC(=O)Cc2coc3c(C)c(C)ccc23)cc1` was tested, and the Potency was inconclusive: 2 µM [inhibitor, partial curve].
In the case of `Cn1c(NCCCO)nc2c(c1=O)C1(CCCCC1)Cc1ccccc1-2`, the Potency is reported as inconclusive: 39.8 µM [inhibitor, single point].
For `Cc1ccc(-c2nnc(Nc3ccc(Cl)c(Cl)c3)c3ccccc23)cc1S(=O)(=O)N(C)C`, the Potency was inconclusive: 12.6 µM [inhibitor, partial curve].
In the case of `Nn1c(Cc2cccc3ccccc23)nnc1SCc1ccc(Cl)c(Cl)c1`, the Potency is reported as “inactive”.
For `CCc1c(C(=O)N/N=C/c2ccc(C)o2)csc1C`, the Potency was inconclusive: 39.8 µM [inhibitor, single point].
`O=C(CSc1nnc(-c2ccccc2)o1)c1nnc(-c2ccccc2)o1` was tested, and the Potency was inconclusive: 39.8 µM [inhibitor, single point].
In the case of `O=C(Nn1c(-c2ccc(Br)cc2)nc2ccccc2c1=O)c1ccncc1`, the Potency is reported as “inactive”.
In the case of `CCOc1ccc(S(=O)(=O)Nc2cccc(C)c2)c2cccnc12`, the Potency is reported as inconclusive: 25.1 µM [inhibitor, single point].
`CCOC(=O)c1cc(C#N)c(=S)[nH]c1C` was tested, and the Potency was inconclusive: 1.12 µM [inhibitor, full curve, poor fit].
For `Cc1cc(NC(=O)COc2ccc(Cl)cc2Cl)n(-c2ccccc2)n1`, the Potency was inconclusive: 6.31 µM [inhibitor, single point].
For `CC(Oc1ccc(Cl)cc1Cl)C(=O)Nc1ccncc1` (configuration not stated), the Potency was “inactive”.
`O=C(Nc1ccc(Cl)c(Cl)c1)OCc1cnc(Cl)s1` was tested, and the Potency was inconclusive: 14.1 µM [inhibitor, partial curve].
`NC(=O)CSc1oc(-c2ccco2)nc1S(=O)(=O)c1ccc(Cl)cc1` was tested, and the Potency was inconclusive: 0.708 µM [inhibitor, partial curve, poor fit].
In the case of `CCOC(=O)c1ccc(NC(=O)Cn2c(=O)cc(C)c3c(C)nn(-c4cccc(F)c4)c32)cc1`, the Potency is reported as inconclusive: 22.4 µM [inhibitor, partial curve].
With `COc1ccccc1-c1noc(CCC(=O)Nc2cc(C(F)(F)F)ccc2Cl)n1` the Potency was “inactive”.
With `Cc1ccc(NC(=O)C(Cc2ccccc2)NS(=O)(=O)c2ccc3c(c2)oc(=O)n3C)cc1F` (configuration not stated) the Potency was inconclusive: 2.51 µM [inhibitor, full curve, poor fit].
`CC1(C)Cc2ccccc2C(N/N=C/c2ccc(Cl)cc2)=N1` was tested, and the Potency was inconclusive: 8.91 µM [inhibitor, partial curve, poor fit].
With `Cc1ccc(C(=O)Nc2cccc(OCc3cc(=O)n4c5c(sc4n3)CCCC5)c2)cc1` the Potency was “inactive”.
`COC(=O)Cn1nc(C)c2c(C)n(-c3ccccc3)nc2c1=O` was tested, and the Potency was “inactive”.
In the case of `CCCC(=O)Nc1nc2ccc(OC)cc2s1`, the Potency is reported as “inactive”.
With `c1coc(-c2nc3ccccc3nc2-c2ccco2)c1` the Potency was inconclusive: 39.8 µM [inhibitor, single point].
`O=C(CCCSc1nc2ccccc2s1)NCc1ccco1` was tested, and the Potency was “inactive”.
